Data: patent US20220348651A1, “ENTPD2 ANTIBODIES, COMBINATION THERAPIES, AND METHODS OF USING THE ANTIBODIES AND COMBINATION THERAPIES” (Novartis AG, priority 2019, published 2022)

Assays:
[1] = system: human ENTPD2 engineered B16LM3 clone B5; experiment: Human ENTPD2 engineered B16LM3 clone B5 model, combination with A2AR antagonist NIR178; type: in vivo
Description: Human ENTPD2-engineered B16LM3 clone B5 was established in female C57BL/6 mice by subcutaneous injection of 0.5×10^6 cells into the right flank of each mouse. Once tumors reached approximately 50 mm^3, mice were randomized according to tumor volume into treatment groups (n=8 per group). Mice received an intravenous (i.v.) treatment of either anti-ENTPD2 mAb1 at a final dose of 10/mg/kg or a non-specific human IgG1 isotype control 10 mg/kg on day 1 of study. NIR178 was administered per os (p.o.) for 4 days on and 3 days off, starting at the beginning of study at either 50 mg/kg or 200 mg/kg. All doses were adjusted to individual mouse body weights. The study was carried out for thirteen days post treatment initiation and tumor volumes were assessed every other day to assess efficacy.

[2] = Anti-drug antibody (ADA) formation in cynomolgus monkey PK study; type: in vivo
From the text: Anti-drug antibody (ADA) formation was also examined in this study.

[3] = system: human ENTPD2 engineered B16LM3 clone B5; experiment: Human ENTPD2 engineered B16LM3 clone B5 model, dose response with anti-PD-1 Ab; type: in vivo
From the text: This model was derived from the B16LM3 melanoma model, where endogenous mouse ENTPD2 expression was knocked out via a transient electroporation of CAS9 protein with CRISPR guide RNA sequences against mouse ENTPD2, and human ENTPD2 was overexpressed using a retroviral transduction approach.
Once tumors reached approximately 35-50 mm^3, mice were randomized according to tumor volume into treatment groups (n=8 per group). […] All doses were adjusted to individual mouse body weights.

[4] = Cynomolgus monkey single and multiple dose pharmacokinetics; details: for Cmax: male cynomolgus monkey, i.v.
[5] = target: T1, human ENTPD2 (Homo sapiens, UniProt Q9Y5L3); experiment: Biacore (SPR) affinity to human ENTPD2 ECD; type: binding; details: 25° C.
T1 construct: residues 29-462 of human or cyno ENTPD2 were cloned into expression vector; GP67 signal peptide (N); made in house; host or cells: High Five (Trichoplusia ni) insect cells, baculovirus
T1 sequence (Q9Y5L3 29-462): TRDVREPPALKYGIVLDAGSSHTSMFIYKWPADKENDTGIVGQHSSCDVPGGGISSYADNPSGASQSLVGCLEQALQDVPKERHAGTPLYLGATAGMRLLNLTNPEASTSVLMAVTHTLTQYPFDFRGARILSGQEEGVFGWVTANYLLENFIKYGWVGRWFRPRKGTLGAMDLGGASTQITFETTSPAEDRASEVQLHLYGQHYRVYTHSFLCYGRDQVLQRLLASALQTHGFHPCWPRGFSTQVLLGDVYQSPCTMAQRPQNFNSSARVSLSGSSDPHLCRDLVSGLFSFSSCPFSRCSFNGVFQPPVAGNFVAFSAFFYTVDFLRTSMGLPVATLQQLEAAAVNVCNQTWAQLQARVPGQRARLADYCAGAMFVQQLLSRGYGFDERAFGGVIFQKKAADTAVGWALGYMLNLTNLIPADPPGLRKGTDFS
Description: Biacore Screening: Affinity was measured by determining the kinetic rate constants using surface plasmon resonance (SPR) on a Biacore T200 or T100 with the T200 sensitivity upgrade instrument (Biacore, GE Healthcare). Antibodies were captured on CM5 sensor chips (Biacore, GE Healthcare) prepared with a mouse anti-human IgG Fc antibody (ThermoFisher catalogue #05-4200) amine coupled to the surface. […] ENTPD2 analytes were allowed to associate for 180 s and dissociate for up to 1800 s depending on the off-rate of the antibody at a flow rate of 30 μL/min. The running buffer was PBS pH 7.2 (prepared from a Corning 10X stock, cat#46-013-CM)+0.05% Tween 20. Regeneration was accomplished with 30 s injections of 3 or 4 M MgCl2 to remove all the captured antibody and remaining complex from the surface, after which fresh antibody was captured. The raw data were analyzed using Biacore T200 Evaluation Software version 1.0 and fit to a 1:1 binding model, with all parameters set to fit globally except for RI, which was set to fit locally.

[6] = Day 7, mAb 10 mg/kg dosed D1, no anti-PD-1 Ab
[7] = 10 to 100 mg/kg i.v. (10-fold increase in dose), plasma
[8] = single i.v. dose, 3 to 10 mg/kg (3.3-fold increase in dose), plasma

B1: mAb1: humanized anti-human ENTPD2 human IgG1 from mAb17; heavy chain SEQ ID NO: 12, light chain SEQ ID NO: 23 (antibody)
heavy: EVQLVQSGAEVKKPGESLKISCKASGYTFTDYNMDWVRQMPGKGLEWMGDINPKYDISTYNQQFKGQVTISADKSIRTAYLQWSSLKASDTAMYYCARRGFFLYYGINYYYFDVWGQGTLVTVSSASTKGPSVFPLAPSSKSTSGGTAALGCLVKDYFPEPVTVSWNSGALTSGVHTFPAVLQSSGLYSLSSVVTVPSSSLGTQTYICNVNHKPSNTKVDKRV[here human IgG1 Fc without letters]
light: DIQLTQSPSSLSASVGDRVTITCSASSSVSYIHWFQQKPGKAPKLLIYSTSNLASGVPSRFSGSGSGTFFTLTISSLQPEDFATYFCHQWSSYPWTFGQGTKVEIKRTVAAPSVFIFPPSDEQLKSGTASVVCLLNNFYPREAKVQWKVDNALQSGNSQESVTEQDSKDSTYSLSSTLTLSKADYEKHKVYACEVTHQGLSSPVTKSFNRGEC
Which results are given for B1?
tumor growth ([1]; B16 syngeneic cell line expressing human ENTPD2, combined with the A2aR antagonist NIR178): delayed tumor growth; T/AC value ([1]; mAb1 10 mg/kg i.v. day 1 with NIR178 50 mg/kg p.o., Day 13): 61.6%; ADA detected (animals) ([2]; 3, 10, 30 and 100 mg/kg i.v.): one (10 mg/kg) of nine animals; effect of ADA on plasma exposure ([2]; ADA-positive animal): reduced the plasma exposure; ΔT/ΔC ([3]; 0.1 mg/kg i.v. day 1, combination with anti-PD-1 Ab fixed dose 10 mg/kg, Day 7): 33.4%; ΔT/ΔC ([3]; 1 mg/kg i.v. day 1, combination with anti-PD-1 Ab fixed dose 10 mg/kg, Day 7): 35.7%; ΔT/ΔC ([3]; 10 mg/kg i.v. day 1, combination with anti-PD-1 Ab fixed dose 10 mg/kg, Day 7): 18.4%; tumor growth ([3]; B16 syngeneic cell line expressing human ENTPD2, combined with an anti-PD-1 antagonistic mAb): delayed tumor growth; Host Response Δ body weight [3, 6]: −0.2%; Tumor Response ΔT/ΔC [3, 6]: 71.7%; anti-tumor efficacy ([3]; as single agents, i.v. day 1): No significant anti-tumor efficacy; plasma clearance ([4]; 3 mg/kg i.v.): approximately 12 mL/day/kg; plasma clearance ([4]; 10 mg/kg i.v.): approximately 7 mL/day/kg; increase in AUC(0-336 h) [4, 7]: approximately 9.5 -fold; increase in AUC(0-inf) [4, 7]: approximately 9.5 -fold; plasma clearance ([4]; dose range 10 to 100 mg/kg i.v.): approximately 7 ml/day/kg; Cmax ([4]; 3 mg/kg, Study Day 1, mean n = 3): 100 µg/mL; Cmax ([4]; 10 mg/kg, Study Day 1, mean n = 3): 352 µg/mL; Cmax ([4]; 10 mg/kg, Study Day 15 (second dose), mean n = 3): 374 µg/mL; increase in AUC(0-inf) [4, 8]: 5.9 -fold; increase of AUC(0-336 h) [4, 8]: 5.3 -fold; ka [5]: 110000 M⁻¹ s⁻¹; kd [5]: 0.00019 s⁻¹
